Measurements: the supplement of paper PMC10126150
Values marked as one replicate rest on one cluster of the flow cell; about a third of the high ones do not repeat.

Tested on: ATP
Experiment: switch fluorescence ratio, 500 uM ATP over buffer (Cy3 cluster intensity, sum of 5 cycles each) (fold (ratio)); higher = stronger signal-on switching upon ATP binding; sequences stand for … in TCGTCGGCAGCGTCAGATGTGTATAAGAGACAGTTTTTTTTTTTTTTTTTTTTTTTTT…TC
Conditions: aptamer strand: ATP DNA aptamer (quencher-CACCTGGGGGAGTATTGCGGAGGAAGG + anchor), 100 nM annealed; ATP concentration: 500 uM; one replicate
Method in brief: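 Cy3-labelled switching-strand clusters on a modified Illumina MiSeq flow-cell were annealed to 100 nM quencher-labelled ATP aptamer, imaged in selection buffer, then imaged after 15 min with 500 uM ATP at 22 °C. Five buffer/ATP cycles ran, with NaOH stripping and re-annealing between them. The fluorescence ratio is summed target-cycle over summed buffer-cycle Cy3 intensity per cluster, averaged per switch-domain sequence. Clusters outside 100-1000 RFU were excluded.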
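Further: ATP exposure 15 min at 22 °C before imaging.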

Row | Sequence | switch fluorescence ratio
1 | CGTATCTTAT | 1.02
2 | CCGGGGAACT | 1.1
3 | AAAGTTGTCA | 0.967
4 | TTATTTGGAC | 1.03
5 | GCCGTGACGA | 1.01
6 | TAATAGGTAT | 1
7 | ATTTCCAAT | 0.967
8 | CTAGCAGTGC | 1.71
9 | GTTGATAGG | 0.999
10 | CAATAGACGT | 0.997
11 | TATAACTTT | 1.02
12 | TTTTATGTCC | 1.09
13 | ATTAAGGGG | 1.06
14 | GCAGGACGCC | 1.29
15 | ACATTGCCGC | 1.04
16 | GCGGAATGTG | 0.994
17 | TGATTTCGGC | 0.962
18 | CAGTAGAGCC | 1
19 | AACGTATCGG | 0.99
20 | CGGGGAGCG | 0.961
21 | CTTGTTATTA | 1.03
22 | AGCTTCATTT | 0.997
23 | CGCCGGGTTA | 0.985

Row | Sequence | switch fluorescence ratio
24 | AGCAATTCCA | 1.77
25 | AGCCGATGAT | 1
26 | GGAATTCTAG | 0.959
27 | TTTCCTGGGA | 0.993
28 | CAAGTGGCCA | 1
29 | ACTTCGGGGA | 0.985
30 | AGGTTGGGCT | 0.974
31 | CGGGGTAATT | 1.18
32 | CCTCGGACGT | 1.15
33 | GCAACCATGA | 0.997
34 | GAGTTCTTTG | 0.958
35 | CGTCACATG | 1.02
36 | CCGATGAGTA | 1.23
37 | GGGCGAATTC | 1.01
38 | CGATCGGGGG | 0.989
39 | GGTTTAATGA | 0.95
40 | TGGAGAGGCG | 0.986
41 | ATCCTTACTT | 1.03
42 | AGCTGGCCAG | 1.02
43 | AGCGGAGG | 0.994
44 | CCGTGGAAGT | 1.02
45 | GGCTTGCCGG | 1
46 | AGCGCCGTGT | 1.01

Row | Sequence | switch fluorescence ratio
47 | GTTAGAGGAG | 1.05
48 | TGAAAGAAGA | 0.967
49 | TTTGAGGATC | 0.982
50 | TTACCGTCCC | 1.57
51 | CGGCGGCTGC | 0.99
52 | CTCCGTATTC | 1.67
53 | CCATGGAGGG | 1.03
54 | TGATCAAGGG | 1.02
55 | TAGTGCTAAA | 1.01
56 | AAATTTCGGG | 0.973
57 | AGATGGGTTC | 0.988
58 | GAATAGTCCG | 1.1
59 | ATAGGGGCGT | 0.985
60 | TGTTTGTTTT | 0.996
61 | AGTGCGGAT | 1.03
62 | TAGTCCCAAT | 1.15
63 | GAGCCGGAGG | 1.03
64 | GCCCTCCCCG | 1.84
65 | TTCAGCATCT | 0.995
66 | ATGGATGCCG | 1.14
67 | ATCAAAACAC | 1.06
68 | CAGATCTAGC | 1.02
69 | CGTGACTCTG | 0.983

Row | Sequence | switch fluorescence ratio
70 | CGGGCGATCG | 1.05
71 | TTTGAACGGA | 1.02
72 | TCGATTGGA | 0.98
73 | TGAGCTTTGG | 1
74 | AAATGATATT | 1.01
75 | CCTTTGGGCC | 0.948
76 | TCGAGGGCTT | 1.03
77 | GATTATGGG | 0.997
78 | AGATAGTTAG | 1.02
79 | GTGAAACGG | 0.991
80 | GGATCAATTT | 0.993
81 | ATTCTCCTAG | 1.03
82 | GAAGCAGGGT | 1.03
83 | AGATTATTCG | 0.971
84 | AGCGCTCAGA | 1
85 | AGTATCTCGG | 1.01
86 | CGGGTCTTCA | 0.986
87 | CCGGTTCCT | 1.08
88 | CAACGCGAGC | 2.92
89 | AGCTGTCAGC | 1.04
90 | GTACTTCTTC | 1.08
91 | CACAACTGTC | 0.995
92 | ATTAATCGT | 1.01

Row | Sequence | switch fluorescence ratio
93 | CTATTTCGGA | 0.988
94 | AAAAGGGGA | 1.01
95 | CCAGCTTGTG | 1.01
96 | ATTACTTAGT | 1.03
97 | TGGTCCCCCA | 0.954
98 | TAGACTTTC | 1.16
99 | TGCGTCACGT | 1.02
100 | CGGGCGGGTT | 0.999
101 | CTCTCGGAAA | 1.01
102 | TGCGTGATA | 1.02
103 | GATTGGGCGC | 0.978
104 | TAAGTGCAAT | 1.1
105 | AGTGGATGCG | 1.04
106 | GAGCGAGTGA | 1.02
107 | ATCTGAACT | 0.999
108 | AGCTATTCAT | 0.988
109 | AAGTTGCTCT | 0.968
110 | CGACCCGGAG | 1.1
111 | TCATCGCCAC | 1.73
112 | GTATGTTGGA | 1.01
113 | TCGGCTCCCT | 1.05
114 | GGGACACTAG | 1.01
115 | GTGGATACCT | 1.12

Row | Sequence | switch fluorescence ratio
116 | GCCATGTGTG | 1.03
117 | CAGGAGTCGC | 1.06
118 | TTGGATTGTC | 1.02
119 | TGTATATGCT | 0.99
120 | GGGCAGATGT | 1.03
121 | AAGACCAGGT | 1.13
122 | TGGTAGTA | 0.997
123 | CACGCTGCGC | 1.02
124 | TCGCGCGGT | 0.984
125 | ATACGTCTTC | 1.04
126 | TTAGCCTCGT | 0.999
127 | AAGTAGCACT | 0.957
128 | GTGACTTATG | 0.919
129 | CACGGTTGGC | 1.05
130 | CGGGCATCGT | 0.999
131 | GTGGAGACAT | 1.02
132 | GTTATCATAC | 1.07
133 | GAATGCCGT | 0.987
134 | TGTGTCACGG | 0.988
135 | TACACCTGTC | 0.915
136 | ACGAGATGGA | 0.971
137 | GACCATCCAG | 0.978
138 | GGCTCACACG | 1.11

Row | Sequence | switch fluorescence ratio
139 | CTTCTTGACT | 1.03
140 | CGAGCATCAC | 3.12
141 | TTAGGCTTTG | 1
142 | ATGGCAGGTG | 1.02
143 | CGTGGTGTAC | 1.08
144 | GTTGGAAATG | 1.03
145 | CAATTCATGA | 1.02
146 | ATTCAGGAAA | 1.26
147 | GCATTTCCTC | 1.17
148 | TAACGGTATT | 1.13
149 | CCTCGAAGCG | 1.15
150 | AGACTTGTTG | 0.995
151 | GGGTAGCGTC | 1.02
152 | TCTGTAGGA | 1.02
153 | GATTGACTTC | 0.995
154 | GAAGACGGTT | 1.04
155 | GCCGGCGTCT | 0.974
156 | GCGTCTAACC | 1
157 | TTGGGCATTA | 0.999
158 | ACACGTTGA | 1
